Over roughly 33,000 sequences, “E-score (-0.5 to 0.5)” has its median near -0.016; the highest 2% begin near 0.32. This is one part of the list.
Target: T1, Stp1 (UniProt B3LFK1)
T1 sequence: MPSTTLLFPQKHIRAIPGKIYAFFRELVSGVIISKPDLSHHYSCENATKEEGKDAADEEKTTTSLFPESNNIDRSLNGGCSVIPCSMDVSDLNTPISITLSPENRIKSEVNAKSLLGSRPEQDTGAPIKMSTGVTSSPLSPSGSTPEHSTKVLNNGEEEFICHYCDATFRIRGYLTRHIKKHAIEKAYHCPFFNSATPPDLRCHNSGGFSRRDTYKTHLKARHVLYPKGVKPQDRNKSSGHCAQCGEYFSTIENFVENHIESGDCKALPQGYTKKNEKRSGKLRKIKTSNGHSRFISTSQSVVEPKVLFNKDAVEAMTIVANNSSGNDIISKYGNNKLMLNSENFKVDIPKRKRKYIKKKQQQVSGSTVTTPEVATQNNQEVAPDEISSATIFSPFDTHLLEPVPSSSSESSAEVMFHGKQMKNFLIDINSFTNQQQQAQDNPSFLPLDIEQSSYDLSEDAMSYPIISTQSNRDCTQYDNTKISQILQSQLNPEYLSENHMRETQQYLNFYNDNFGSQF
Experiment: PBM E-score (8-mer binding enrichment) (E-score (-0.5 to 0.5)); higher = stronger / more preferred TF binding; most listed sequences are background and not binding sites
Details: protein concentration: 200 nM; construct: GST-full length
Outline: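 GST-tagged yeast TFs (full-length or DNA-binding domain) were made by PURExpress in vitro transcription/translation and applied at about 100-200 nM to universal all-10-mer Agilent arrays. The arrays were made double-stranded by primer extension, on fresh or once-stripped slides. Bound protein was detected with fluorescent anti-GST, and scans were normalised with masliner. Each ungapped eight-base word, pooled with its reverse complement, received an E-score (modified Wilcoxon-Mann-Whitney statistic) from the Universal PBM Analysis Suite.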

| Sequence | PBM E-score |
| --- | --- |
| CGGGCGCA | -0.16 |
| GATGAAAC | 0.0664 |
| AAAGTTTA | 0.189 |
| TAATTACA | 0.041 |
| CTGAAATA | 0.0993 |
| AACCTTCC | -0.0388 |
| GCGTCACC | 0.011 |
| CAGAAACG | 0.25 |
| ATCGAAAA | 0.0988 |
| ATCCAAAA | 0.115 |
| GCTTCAGA | 0.00419 |
| CTCATGAG | 0.183 |
| GAACTAGC | -0.182 |
| CCATAAGA | 0.0932 |
| AGTAACGC | 0.192 |
| AAACATGC | -0.0742 |
| ATTAGCTG | 0.0634 |
| AGCGGGGC | 0.0451 |
| ACCATACG | 0.164 |
| AGCGAATG | -0.08 |
| AAGGCCTG | -0.264 |
| GGTTTACA | 0.0843 |
| CAGTAAAG | 0.0751 |
| CGCAGAAA | 0.131 |
| GGTAGTGA | -0.202 |

| Sequence | PBM E-score |
| --- | --- |
| GGACGACA | 0.135 |
| AACGTTTC | 5e-05 |
| AACACTGT | -0.0574 |
| AATGAGAG | -0.0729 |
| CACCAGCG | -0.178 |
| AACTTAAA | 0.142 |
| ATACTACA | 0.0929 |
| ATTGGCCC | -0.366 |
| CCGCGGAC | 0.12 |
| CCGTAAAA | 0.246 |
| GGGTAAAA | 0.138 |
| AGCAGCCT | -0.0925 |
| AAATTTCG | 0.12 |
| AGTCAGTG | 0.00226 |
| AGGAAACC | 0.0356 |
| ACACGGGG | 0.235 |
| GACGGAAA | 0.0786 |
| CTTGCCCA | -0.0628 |
| CTCCTCTA | -0.321 |
| AAAGCTAC | -0.0607 |
| CACCAACG | -0.0306 |
| CTCTTACC | 0.201 |
| TCGTCTCA | -0.154 |
| CAGCAAAA | -0.0372 |
| CCCCCGCG | -0.0598 |

| Sequence | PBM E-score |
| --- | --- |
| GCATTCGA | -0.0305 |
| AATATGCA | 0.00405 |
| AATGAGCT | -0.164 |
| ATCGCAAC | -0.0994 |
| GGAAGTCC | -0.166 |
| GATGTAGC | -0.123 |
| ATCAGACC | -0.0398 |
| CAGTTGGA | 0.0531 |
| GACTATCA | -0.0382 |
| ATCAAAAC | 0.102 |
| CGTCGATA | 0.105 |
| CTGATTCA | -0.0077 |
| TCTCACAA | 0.0365 |
| AAAGGCTC | 0.104 |
| ACCTCTTA | 0.128 |
| GCCTCATA | 0.243 |
| ACGAGGGC | 0.0192 |
| AGTAATCC | -0.0894 |
| AGGGCGAG | -0.12 |
| ATGTTAAA | 0.221 |
| CATTGCCC | 0.0291 |
| ACGGATGG | 0.14 |
| GAAGAGTC | -0.219 |
| CCCTGATA | -0.202 |
| ACGATCTA | -0.1 |

| Sequence | PBM E-score |
| --- | --- |
| CTGGACCC | -0.266 |
| GATCGCAC | -0.0631 |
| ACTCAAGC | -0.105 |
| CGGTAAAG | 0.0549 |
| GACAGCAA | 0.193 |
| ACTGGTCG | -0.0623 |
| CGACCACC | -0.106 |
| ATAATAGA | 0.035 |
| GATGTTTA | -0.0105 |
| CGTGCACG | 0.221 |
| CTACCACC | -0.296 |
| GTGACCCA | -0.011 |
| ATCCGCGG | 0.13 |
| CCACCACC | -0.144 |
| AATTGAAT | 0.0857 |
| AGTGTTCG | -0.0382 |
| AATAACGA | 0.0307 |
| CGATACCC | -0.161 |
| CATACATA | 0.193 |
| AATCGAGT | -0.048 |
| AAGGTCCT | -0.234 |
| AGACAGGC | -0.0258 |
| ATACACGA | -0.0471 |
| GGCGTGGA | -0.0299 |
| ACAGATCA | -0.122 |

| Sequence | PBM E-score |
| --- | --- |
| CACTCTCA | 0.0406 |
| GAAATTAA | 0.242 |
| CACATAGA | 0.0469 |
| ATTTATCC | 0.27 |
| AGAACCCG | -0.227 |
| TAAAATTA | 0.153 |
| CCTTACGA | 0.109 |
| ATCTCTAA | 0.0233 |
| TCATAACA | 0.25 |
| ACGGCCAA | 0.278 |
| CGTCTCGC | 0.0123 |
| AGCAACTC | -0.00471 |
| AATCTGAA | 0.146 |
| CAAGCAGG | -0.148 |
| CACAGACC | -0.0852 |
| GCATCAGC | -0.0129 |
| TAGCATCA | -0.0364 |
| TCCCAAAA | 0.164 |
| AATCTAGC | -0.0235 |
| CTCCGTTC | 0.072 |
| GCATTTTA | 0.195 |
| TATGAAGA | 0.17 |
| AGATGTGA | 0.204 |
| AAGCAATT | 0.177 |
| GAATGATA | 0.196 |

| Sequence | PBM E-score |
| --- | --- |
| AAAACTCA | 0.0761 |
| CATCGACC | 0.076 |
| CGTGTGAG | 0.0462 |
| GCTGTTAA | 0.0804 |
| CAGTGACG | -0.105 |
| ACGCGTTG | 0.0971 |
| ACAGCTAT | -0.22 |
| CCGTCCTA | 0.0389 |
| ACGCTGAC | -0.131 |
| GCCTAAAA | -0.0419 |
| CCTGCGCA | -0.204 |
| GTACCAAC | -0.0004 |
| ATCGAAAC | 0.152 |
| CAGGCCCA | -0.178 |
| CCAGTTCG | -0.039 |
| AGGAATCC | -0.00808 |
| ATCGGGTA | -0.19 |
| TACATCGA | 0.0474 |
| CTTACGCC | 0.189 |
| ACTCCTTG | -0.164 |
| ACGCTACC | -0.239 |
| AAATACGA | 0.0656 |
| GAGGTTAA | -0.21 |
| GCCAACCC | -0.176 |
| AGAGGCCC | -0.273 |

| Sequence | PBM E-score |
| --- | --- |
| ATTTTATC | 0.182 |
| AGCGATTC | -0.194 |
| ATCGTGAC | 0.0453 |
| ATTCTCGA | 0.101 |
| GCTTAGTA | 0.0302 |
| CAATTACC | -0.00841 |
| CTGCTACC | -0.0964 |
| CCATAGTA | -0.13 |
| AGTGAACG | -0.0702 |
| CGCCGGAG | -0.0423 |
| AACTAAAC | 0.148 |
| CTTTCGCA | 0.108 |
| ATCTAAAT | 0.191 |
| CTTCGGTC | 0.0236 |
| GCAAAAGC | 0.148 |
| CGGTCGTA | -0.215 |
| ACGAGGCA | 0.37 |
| CAAGGTAG | -0.194 |
| GGGGTCCA | -0.323 |
| CACGAGGC | 0.415 |
| CGGCAAAA | 0.357 |
| CAGGAGGC | 0.108 |

— the supplement of paper PMC3334620
